# Measured values as given in the supplement of paper PMC11417369.
# This is one part of the list.
# System: PfSIP2 AP2 domain 1 (GST-tagged)
# Experiment: gcPBM binding intensity (ln(normalized median fluorescence intensity)); higher = stronger DNA binding
# Outline: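 Using an Agilent 4 × 180k array, primer-extended double-stranded 36-bp intergenic genomic probes and negative controls were exposed for 1 h to GST-fused P. falciparum DNA-binding domains expressed in E. coli. Binding was carried out in 1× PBS with 1% milk, 0.2 mg/ml BSA, 0.5% salmon testes DNA and 0.03% Triton X-100, and protein was detected with Alexa488 anti-GST antibody and a 488 nm scan. Binding intensity is the highest Masliner-normalised natural-log median intensity across replicate spots of either probe orientation.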
row,Sequence,gcPBM binding intensity (ln)
1,ATATATACAACTAAAGAACACACATCATTGTTCATT [CACACA_site9224],7
2,AAACAATTTTTTAAAAGTACTTGAAAATTGTGAAAT [XGTACX_site2461],6.99
3,TGTATATTTGATTCATGTACATATTTTATTTTAACT [XGTACX_site5169],7.14
4,CAGATTTATTCAAACGCATGCTGTTTTAAAATAAAA [TGCATGCA_site874],6.65
5,CCTATATAATTATAATGTACTTGTAAAAAATATAAC [XGTACX_site2864],7.42
6,AAATATAAAAAATATACACACATATATAATATATAT [CACACA_site2963],7.26
7,ATCCGCTGCCTTTTGGTGCAGAACATAATCATGTAA,9.39
8,TTTAAAATATTAAAATGTACATATATATATATATAT [XGTACX_site6784],9.73
9,TATATATATATATATACACACATACATATATATATT [CACACA_site8185],9.25
10,ACATAAATATATTTTTCACACATCCTTAGTTATGAA [CACACA_site5179],7.13
11,AATGTATTTAAACTGACACACAAAAAAAATAAAATA [CACACA_site2138],7.02
12,ATATTGTAAGTAAACACACACACATCTATAGGTATA [CACACA_site6462],7.01
13,AATAGTAAAAGATATACACACACCAAAAAATAGAAT [CACACA_site2289],7.06
14,ATTATACATATGTATGCACACATACATACACATATA [CACACA_site9155],7.18
15,ATATATATATGTTTATGTACTTATAATAATATAACT [XGTACX_site4828],8.88
16,TAATTTAAGAAAAAATGTACACAAATATAATAATAG [XGTACX_site8317],7.19
17,ATACATATATGTGTGTGTACATAAATGTATATATTT [XGTACX_site6242],6.91
18,GCATGGAACCATATATGTACATATATAAATAAATAA [XGTACX_site4996],7.16
19,GTATCTTTCAAAATATGTACATATATATATGTGTGT [XGTACX_site3512],7.41

row,Sequence,gcPBM binding intensity (ln)
1,AACTTTATTCCTAATTGTACACATATATATATATAT [XGTACX_site6823],9.34
2,CGTATAACATATGACACACACACATACATACACAAA [CACACA_site1803],7.22
3,GATTTATATAATTCAAGTACTAAAAATATTTTTAAT [XGTACX_site5285],7.09
4,AAAAAAAATATCTATGCATGTAATATTATGATATTG [TGCATGCA_site546],6.86
5,TAACATTAAAATAAAAGTACTTAATAATATTAAGTA [XGTACX_site5920],6.76
6,TTAATAATAAATGAAAGTACATATAAAAAAAAAAAA [XGTACX_site717],6.84
7,GTATATTAATAAACATGTACACAATTTATTTATATT [XGTACX_site1012],7.25
8,TTTTTTTTTTGAAGTGCATGTTACGATGAAAAAAAA [TGCATGCA_site64],8.92
9,TTTTTTTTTAAATGTTGTACATTATATTTGTGTATA [XGTACX_site8354],6.88
10,ACATATAAAATGATGCGTACATATTTGATCATATAC [XGTACX_site153],7.11
11,CTAAATAACTTAAGGTGTACGTTTCCAATAAAAAAA [XGTACX_site1742],7.06
12,TGTAGCCTGGAGAAGAGTACATAGTATCTGGTAGCT [XGTACX_site4943],6.7
13,CGTATGTGCGGACATGCATGCAATATACAAGAAAAA [TGCATGCA_site145],7.29
14,AATGGAAATTTTTCTTGTACACATATATGACATGTT [XGTACX_site1691],7.05
15,TTTTTTTTTACTGCATGTACTTGATGTAAATAAATT [XGTACX_site3045],7.09
16,AATATGACGTAGTGGTGTACACACATGGTACCTTTA [XGTACX_site3147],7.41
17,TATAGAATAATCTATAAACACACAAACACAACAAAA [CACACA_site9374],7.21
18,AAAAGATAATTATGCACACACACACCCCCACCCAAC [CACACA_site2570],9.49
19,TTATAAATATAATTTTGTACATATATATATATATAC [XGTACX_site5064],7.39

row,Sequence,gcPBM binding intensity (ln)
1,TTAGAACTATTTTATACATGCAGTTATTTAATACTT [TGCATGCA_site1039],6.77
2,ACAACAATTCACTTGATGCACTAACCAAAAAAATAA,8.67
3,CACGCACGCAGACACACACACACACGCACATATATA [CACACA_site6303],7.31
4,ATATATTTTCCTTCAAGTACACATATAAATGTGTAT [XGTACX_site6633],7.25
5,ATTAAAATATAAGTCACACATATATATATATATATA [CACACA_site6145],9.26
6,TATTTTTTTTTATTTTTTTTTATTTTGTTTTTTTAT [TGCATGCA_negctrl_site315],6.8
7,AAAAAAATAATCATCACACACGGAGAATGTCCAATA [CACACA_site5305],6.84
8,ACATATATTTTTTTTTGTACATATAAATATATATAT [XGTACX_site6491],8.15
9,AACGTAAAACATATCTATCAAAATAAATCATTAATC [TGCATGCA_negctrl_site68],6.61
10,AATATAATAATATTTTGTACATATCCTATGTATGAG [XGTACX_site8601],6.96
11,AATGTTTATTAACATTGTACTTATAATATGTCACAA [XGTACX_site2974],6.85
12,AATAATAAAGATCAATGTACATAATAAAAAAAAAAA [XGTACX_site2692],6.87
13,TATCATGGGTGTATTTCACACACGGATAATCATTTA [CACACA_site8211],6.61
14,TTATTAAGTAAATCACATTTAATTTTTTTTTTTTTT [CACACA_negctrl_site1280],6.94
15,CACATATAAATATTAACACACATAATGAGTTATATA [CACACA_site7316],6.87
16,TTATACCATATTTATAGTACGTACAAATAAATCAAT [XGTACX_site4975],7.3
17,AAGAAAAAAAAAAAAAGTACATGCAATATGGATCTT [XGTACX_site3106],6.86
18,AAACAACATATATTAATATGTACATATATATAGATA [GTGCAC_negctrl_site229],7.08
19,TTTTTTTTTTTTGTAACACACAATAATATAACATTA [CACACA_site3411],6.87
